Measurements published in PubChem BioAssay AID1508624 (National Center for Advancing Translational Sciences (NCATS), 2021).
About 120 (0.25%) of roughly 48,000 compounds were called active. Not shown: some 4% with an inconclusive outcome. Calls come from the whole dose curve; as a rule, active = well fitted activation curve with a large enough effect; inconclusive = small, poorly fitted or top-dose-only effect, or another doubt; inactive = no such curve, though single readings can be large or run the other way. Some of the results follow.

assay: Primary qHTS for Identification of Small Molecule Activators of Huntingtin-Antisense Promoter Activity; settings: HEK293 HTT-AS promoter firefly luciferase reporter, 24 h; series mostly up to 57.5 µM; activity change, positive = activation: at the top concentration; note: nearly all actives have a fitted effect of over 55% in size
Procedure, shortened: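 Luminescence was read after Dual-Glo reagent and a 10 min room-temperature incubation. Values were normalized to vehicle (0% activity) and zero RLU (-100% activity). Reporter HEK293 cells had been exposed to compounds (up to 57.5 uM final) for 24 h.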

Row | Compound | activity change, positive = activation
1 | CCOc1ccccc1C(=O)Nc1cc(-c2nc3cccnc3s2)ccc1C | inactive: -0.355%
2 | CCC(Sc1ncnc2sc3c(c12)CCCC3)C(=O)OCC(C)C (stereo not drawn) | inactive: -24.9%
3 | COc1ccc(-n2c(SCc3nc(-c4ccc(Cl)cc4)no3)nnc2-c2ccncc2)cc1 | inactive: -10.3%
4 | CCOC(=O)N1CCC(NC(=O)c2cnn(-c3ccc(C)cc3)c2C2CCN(C(=O)OC(C)(C)C)CC2)CC1 | inactive: -11.7%
5 | CCOc1ccc(-c2cc(CCCC(=O)NCCc3ccc(OC)c(OC)c3)no2)cc1 | inactive: -81%
6 | CC(C)(C)C(=O)Nc1ccc2nc(SCCOc3ccccc3Cl)sc2c1 | inactive: -29.7%
7 | CCc1ccccc1NC(=O)Cn1nnc(C(=O)Nc2ccc(OC)c(OC)c2)c1N | inactive: -4.98%
8 | Cc1cccc(NC(=O)c2oc3ccc(S(=O)(=O)N(C)C4CCCCC4)cc3c2C)c1C | inactive: -36.9%
9 | CCCCN(Cc1ccco1)C(=O)c1cc2c(s1)-c1c(C)cccc1OC2 | inactive: -16.7%
10 | CCOC(=O)c1ccccc1NC(=O)c1nn(-c2ccc(C)cc2)c(=O)n(C)c1=O | inactive: -9.4%
11 | CCc1ccc(S(=O)(=O)N2CCN(c3ccc(Cl)c(Cl)c3)CC2)cc1 | inactive: -30.9%
12 | Cc1c(NC(=O)C(F)(F)F)ccc2nc3c(=O)n(C)c(=O)n(C)c3nc12 | inactive: 12.5%
13 | CCc1ccccc1NC(=O)c1cnn(-c2ccc(F)cc2)c1C1CCNCC1 | inactive: -5.11%
14 | COc1ccc(-c2cc(-c3ccc4c(c3)NC(=O)CO4)nc3c2COc2ccc(C)cc2-3)cc1 | inactive: 6.2%
15 | COc1ccc(-n2ncc(C(=O)NCCCN3CCCCC3)c2C2CCN(C(=O)OC(C)(C)C)CC2)cc1 | inactive: -0.754%
16 | CCOCCCNC(=O)Cn1cc2c(n1)-c1c(oc(C(=O)N3CCCC3)c1C)CC2 | inactive: -18.7%
17 | CC(C)c1ccc(NC(=O)c2cnn3c(C(F)F)cc(-c4ccccc4)nc23)cc1 | inactive: 4.21%
18 | Cc1cc(C)c(S(=O)(=O)N2CCC(N3CCN(Cc4ccc(F)cc4)C(=O)C3=O)CC2)c(C)c1 | inactive: -2.49%
19 | COC(=O)Cn1ccc2cc(S(=O)(=O)N3CCCCC3)ccc21 | inactive: -15.1%
20 | Cc1ccccc1NC(=O)c1ccc(F)c(S(=O)(=O)N2CCc3ccccc3C2)c1 | inactive: -30.2%
21 | Cc1ccc(C(C)C)c(OCCCn2c(=O)oc3ccc(C)cc32)c1 | inactive: -23.6%
22 | Nc1nc(N)c2nc(CNc3ccc(C(=O)NC(CCC(=O)O)C(=O)O)cc3)cnc2n1 (stereo not drawn) | inactive: -41.2%
23 | COc1cc(O)ccc1-c1nc2cc(C)ccn2c1Nc1ccccc1C | inactive: -24.4%
24 | O=C(CSc1ncc(CO)n1Cc1ccc(F)cc1)NCc1ccco1 | inactive: -8.53%

Row | Compound | activity change, positive = activation
25 | CCc1ccc(S(=O)(=O)Nc2cccc(-c3ccc(OC)nn3)c2)s1 | inactive: -60.8%
26 | Cc1cccc2c(=O)cc(CSc3ccccc3NC(=O)c3cccc(Br)c3)[nH]c12 | inactive: -21.1%
27 | O=C(Nc1cccc(F)c1)C1CCN(S(=O)(=O)c2ccc3[nH]c4c(c3c2)CCCCC4)CC1 | inactive: -41.5%
28 | COc1ccc(NC(=O)CSc2nc3nc(C)cc(C)n3n2)cc1OC | inactive: 0%
29 | Fc1ccc(C(c2ccc(F)cc2)N2CCN(C/C=C/c3ccccc3)CC2)cc1 | inactive: -34.5%
30 | CCOc1ccccc1NC(=O)NCc1noc2ccc(C)cc12 | inactive: -12.7%
31 | Cc1ccc(N2CC(C(=O)NCc3nnnn3-c3ccc(C)c(C)c3)CC2=O)cc1C (stereo not drawn) | inactive: -2.31%
32 | CC(C)c1ccc2oc(-c3cc(NC(=O)c4cccnc4)ccc3Cl)nc2c1 | inactive: -25.1%
33 | COc1cc(C(=O)NCC(c2ccc3c(c2)OCO3)N2CCN(C)CC2)cc(OC)c1OC (stereo not drawn) | inactive: -7.49%
34 | COc1cccc2c1cc1c(=O)n(CC(=O)NCc3ccc(N(C)C)cc3)nc(C)n12 | inactive: -5.67%
35 | COc1cccc(NC(=O)c2sc3nc(C)c(C(=O)Nc4ccc(C)cc4C)c(-c4ccc(C)o4)c3c2N)c1 | inactive: 13.9%
36 | CCC1CCCCN1CCCNC(=O)c1c(C)oc2ncn(CC(C)C)c(=O)c12 (stereo not drawn) | inactive: -5.57%
37 | O=c1n(Cc2ccc(Cl)cc2)nc2n1-c1ccccc1OC2 | inactive: 11.5%
38 | Cc1cccc(NC(=O)CN2C(=O)CC(c3ccccc3)Sc3ccccc32)c1 (stereo not drawn) | inactive: -35.4%
39 | Cc1ccc(NC(=O)CCc2c(C)nc3ncnn3c2C)cc1Cl | inactive: -7.19%
40 | Cc1ccccc1NC(=O)Cn1nnc(C(=O)NCc2cccs2)c1N | inactive: -20.5%
41 | Cc1ccc(C)c(CSc2cn(CCNC(=O)c3cccs3)c3ccccc23)c1 | inactive: -36.5%
42 | CCc1ccc(NS(=O)(=O)c2ccc(NC(=O)N3CCCC3)cc2)cc1 | inactive: -2.89%
43 | Cc1ccc(CSc2nc3cc(C(=O)NC4CCCC4)ccc3c(=O)n2Cc2ccccc2)cc1 | inactive: -9.14%
44 | O=C(Nc1cccc(O)c1)c1cc(-c2ccccc2F)no1 | inactive: 19.7%
45 | CCc1ccc(NC(=O)Cn2nnc(C(=O)Nc3ccc(F)cc3)c2N)cc1 | inactive: 3.6%
46 | O=C(NCc1cccc(Cl)c1)c1ccc2c(Cl)c3c(nc2c1)CCCC3 | inactive: -22%
47 | COc1ccc(CCN2C(=O)N(c3ccc(C)cc3)C(=O)C2CC(=O)Nc2ccc(OC)cc2)cc1 (stereo not drawn) | inactive: 0%
48 | COc1cc(NC(=O)c2cc(S(=O)(=O)N3CCC(C)CC3)cn2C)cc(OC)c1OC | inactive: -9.57%

Row | Compound | activity change, positive = activation
49 | CCOC(=O)C1CCCN(C(=O)Cn2ncc3c4ccccc4n(C)c3c2=O)C1 (stereo not drawn) | inactive: -20.3%
50 | Cc1cccc(NC(=O)CCNS(=O)(=O)c2cccc3nonc23)c1 | inactive: 1.51%
51 | CC(=O)Nc1ccc(S(=O)(=O)NC2(C(F)(F)F)C(=O)Nc3c2c(=O)[nH]c(=O)n3-c2ccc(C)c(C)c2)cc1 (stereo not drawn) | inactive: -2.48% [at 11.5 µM, percent change from vehicle, -100% = no light]
52 | COc1cccc(-n2c(-c3ccco3)nc3c(cnn3-c3ccc(C)cc3)c2=O)c1 | inactive: -27.6%
53 | CCN1c2ccccc2-c2nc(SCC(=O)Nc3c(C)cc(C)cc3C)ncc2S1(=O)=O | inactive: -16.1%
54 | CCOc1ccc(C(=O)c2cn(Cc3ccc(OC)cc3)c3cc(OC)c(OC)cc3c2=O)cc1 | inactive: -11.9%
55 | CCOc1ccc(NS(=O)(=O)c2ccc3[nH]cc(C(=O)NC4CCCC4)c(=O)c3c2)cc1 | inactive: -37.5%
56 | Cc1ccc(C(=O)CSc2nnc(-c3ccccc3)n2-c2ccccc2)cc1 | inactive: -2.94%
57 | CCOc1ccc(NC(=O)CSc2ncc3c(n2)-c2cc(Cl)ccc2N(C)S3(=O)=O)cc1 | inactive: -16.8%
58 | O=C(O)c1cc(O)c2c(c1)C(=O)c1cccc(O)c1C2=O | inactive: -7.78% [at 116 µM, percent change from vehicle, -100% = no light]
59 | CC1=C(C(=O)NCc2ccc(C)cc2)C2(CCCCC2)OC1=O | inactive: -1.91%
60 | Cc1ccc(Nc2c(F)cccc2Cl)c(CC(=O)O)c1 | inactive: 0.366%
61 | Cc1ccc2cccc(NC(=O)C(C)Oc3ccc(C)c(C)c3)c2n1 (stereo not drawn) | inactive: -21.3%
62 | Cc1noc(Cn2c(=O)c3ccccc3n(CC(=O)Nc3ccc(Cl)cc3)c2=O)n1 | inactive: -16%
63 | O=C(Nc1cc(Cl)ccc1Cl)C1(c2cccs2)CCOCC1 | inactive: -20.9%
64 | O=C(CSc1nc2ccccc2nc1Cc1ccc(Cl)cc1)N1CCN(c2ccccc2F)CC1 | inactive: -3.06%
65 | Cc1ccccc1OCC(=O)Nc1ccc2nc(SCCOc3ccccc3)sc2c1 | inactive: -1.87%
66 | Cc1ccc(C)c(N2CCN(C(=O)CCCCCn3c(=O)[nH]c4ccccc4c3=O)CC2)c1 | inactive: 2.6%
67 | Cc1ccc(C)c(Cn2c(SCC(=O)N(C)Cc3ccccc3)nc3ccccc32)c1 | inactive: -21.3%
68 | CN(C(=O)CSc1nc2ccc(NC(=O)CCc3ccccc3)cc2s1)c1ccccc1 | inactive: -41%
69 | CCOc1ccc(-c2cc(C(=O)N3CCN(c4cccc(C)c4)C(C)C3)c3ccccc3n2)cc1 (stereo not drawn) | inactive: 0%
70 | CCc1ccccc1NC(=O)C(=O)NCC(c1cccnc1)N1CCc2ccccc21 (stereo not drawn) | inactive: -29%
71 | Cc1ccc(-c2nnc(Nc3ccc(S(N)(=O)=O)cc3)c3ccccc23)cc1S(=O)(=O)N1CCOCC1 | inactive: 3.24%
72 | COc1ccc2c(c1)Cc1sc(NC(=O)c3cccc(F)c3)nc1-2 | inactive: 13.2%

Row | Compound | activity change, positive = activation
73 | CCOC(=O)c1ccc(NC(=O)C2CC(=O)N(c3ccc(C(C)C)cc3)C2)cc1 (stereo not drawn) | inactive: -10.2%
74 | CCc1cccc(NC(c2nnc(-c3ccccc3)o2)c2ccc(F)cc2Cl)c1 (stereo not drawn) | inactive: -33.3%
75 | Cc1ccc(NC(=O)NCC2CCN(Cc3cccc(Cl)c3)CC2)cc1Cl | inactive: -12.7%
76 | COc1cccc(CNC(=O)CSc2nc3ccccc3nc2Cc2ccc(C)cc2)c1OC | inactive: -14.1%
77 | CCCn1c2ccccc2c2cnn(CC(=O)NCCc3ccc(OCC)c(OCC)c3)c(=O)c21 | inactive: -26.6%
78 | Cc1ccc(NC(=O)CCNS(=O)(=O)c2ccc3c(c2)CCN3C(=O)C2CC2)c(Cl)c1 | inactive: -29.3%
79 | CCOc1ccccc1NC(=O)CSc1ncc(S(=O)(=O)c2ccc(C(C)(C)C)cc2)c(=O)[nH]1 | inactive: -13.9%
80 | CCCCNC(=O)CCn1c(=O)c2cccn2c2ccc(F)cc21 | inactive: -15.9%
81 | COc1ccc(Nc2ncc(C(=O)Nc3cc(Cl)c(OC)cc3OC)c3ccccc23)cc1 | inactive: -24.2%
82 | O=C(CCS(=O)(=O)c1nc(-c2ccc3c(c2)OCO3)cc(C(F)(F)F)n1)Nc1ccc(F)c(Cl)c1 | inactive: -75.6%
83 | CN(C)c1ccc(C(CNS(=O)(=O)c2ccc(F)cc2)N2CCCC2)cc1 (stereo not drawn) | inactive: -4.39%
84 | O=c1c2cc3c(cc2n(Cc2cccc(Cl)c2)c(=O)n1Cc1nc(-c2ccccc2)no1)OCO3 | inactive: -15.9%
85 | COc1ccc(NC(=O)CCNS(=O)(=O)c2cccc3nonc23)c(OC)c1 | inactive: -5.41%
86 | CC(=O)N1CCCc2cc(S(=O)(=O)N3CCCC(C(=O)Nc4cccc(F)c4)C3)ccc21 (stereo not drawn) | inactive: -43%
87 | COc1ccc(N2CCN(C(=O)c3ccc(Nc4nc5ccccc5n5nnnc45)cc3)CC2)cc1 | inactive: 2.48%
88 | NC(=NCc1ccccc1)NC(=O)c1nc(Cl)c(N)nc1N | inactive: -15.6%
89 | O=C(Nc1ncc(Cc2ccc(Cl)cc2)s1)c1ccc2c(c1)CC(c1ccccc1)OC2=O (stereo not drawn) | inactive: -12.9%
90 | Cc1cc(Nc2cccc(Cl)c2)nc2ccc(NC(=O)Cc3ccc(Cl)cc3)cc12 | inactive: -36.9%
91 | COc1cc(N2C(=O)CSC23C(=O)N(Cc2cccc(F)c2)c2ccccc23)cc(OC)c1OC (stereo not drawn) | inactive: -9.19%
92 | COc1ccc(NC(=O)c2sc3nc4c(cc3c2N)CCCCCC4)c(OC)c1 | inactive: 5.01% [at 11.5 µM, percent change from vehicle, -100% = no light]
93 | CCN(CC)CCNC(=O)CN1C(=O)COc2ccc(S(=O)(=O)N3CCOCC3)cc21 | inactive: -12%
